In paper PMC4336329 (PLoS ONE, 2015):
Screen size: about 310,000 compounds; about 14,000 (4.5%) showed an effect of 50% or more. The effect is printed as a negative number. The list shows a part of the results.

What follows are molecules tested against human ether-à-go-go-related gene (hERG) potassium channel (human, UniProt Q12809) (assay: primary screen, population patch clamp on CHO cells stably expressing hERG).
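Further: peak tail current of the secondary pulse compared with the same well before compound.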

human ether-à-go-go-related gene (hERG) potassium channel, sequence (Q12809 whole entry, looked up): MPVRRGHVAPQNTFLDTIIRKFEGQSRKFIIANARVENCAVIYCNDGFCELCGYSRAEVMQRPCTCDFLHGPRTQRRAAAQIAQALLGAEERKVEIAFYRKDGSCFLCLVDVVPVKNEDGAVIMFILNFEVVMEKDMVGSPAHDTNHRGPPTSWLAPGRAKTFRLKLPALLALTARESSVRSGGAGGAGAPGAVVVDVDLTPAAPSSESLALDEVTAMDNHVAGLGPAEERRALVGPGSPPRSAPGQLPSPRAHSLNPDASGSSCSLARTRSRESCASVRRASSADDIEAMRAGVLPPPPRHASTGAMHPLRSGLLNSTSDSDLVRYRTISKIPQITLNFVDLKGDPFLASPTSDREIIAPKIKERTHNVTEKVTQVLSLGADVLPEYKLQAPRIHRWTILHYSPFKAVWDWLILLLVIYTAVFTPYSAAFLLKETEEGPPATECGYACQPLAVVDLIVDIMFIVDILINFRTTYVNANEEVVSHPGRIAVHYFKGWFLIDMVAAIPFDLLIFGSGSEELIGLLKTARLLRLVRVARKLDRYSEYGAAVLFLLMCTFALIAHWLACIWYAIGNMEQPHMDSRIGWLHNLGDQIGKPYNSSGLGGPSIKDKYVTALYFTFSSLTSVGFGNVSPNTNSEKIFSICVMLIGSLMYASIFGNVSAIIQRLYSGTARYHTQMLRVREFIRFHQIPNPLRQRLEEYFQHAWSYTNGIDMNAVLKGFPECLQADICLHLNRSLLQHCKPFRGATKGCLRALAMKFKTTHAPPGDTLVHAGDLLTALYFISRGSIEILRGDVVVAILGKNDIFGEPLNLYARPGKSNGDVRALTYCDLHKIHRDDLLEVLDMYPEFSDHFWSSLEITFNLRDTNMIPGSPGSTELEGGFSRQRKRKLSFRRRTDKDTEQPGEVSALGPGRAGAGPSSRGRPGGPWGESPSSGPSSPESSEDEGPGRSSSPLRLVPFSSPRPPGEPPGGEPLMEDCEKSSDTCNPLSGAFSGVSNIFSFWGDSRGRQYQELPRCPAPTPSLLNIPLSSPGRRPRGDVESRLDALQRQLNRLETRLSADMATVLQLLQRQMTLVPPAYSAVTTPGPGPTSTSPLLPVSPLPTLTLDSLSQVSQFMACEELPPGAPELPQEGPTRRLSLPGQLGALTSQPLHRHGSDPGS

SMILES | hERG current change (%, negative = inhibition) at 10uM
O=C(CSc1n[nH]c(=O)[nH]c1=O)N/N=C/c1ccccc1O | 11%
COCCNC(=O)c1cn(C)c2ccc(S(=O)(=O)N3CCCCC3)cc2c1=O | 11.1%
Cc1ccc2c(CC(=O)OCC(=O)Nc3ccc(Cl)cn3)coc2c1 | 1.62%
COc1ccc(-c2noc(-c3cccc(OC)c3OC)n2)cc1OC | 20.4%
Cc1nc(N/N=C/c2ccc(Br)cc2)cc(N2CCOCC2)n1 | -0.525%
O=S(=O)(c1ccccc1)N1CCN=C1SCc1cccc(Cl)c1 | -14.9%
COc1cc(S(=O)(=O)NCCc2ccc3c(c2)OCO3)ccc1-n1cnnn1 | -16.3%
CC(=O)Nc1ccc(C(=O)OCC(=O)N2CCCC2)cc1 | 19.2%
Cc1c(C(=O)Nc2cc(F)ccc2F)sc2nc3n(c(=O)c12)CCCCC3 | 22.7%
COC(=O)c1ccc(CC(=O)c2c(C)cc(O)cc2O)o1 | 0.801%
COC(=O)c1ccc(CSc2nc3ccccc3o2)cc1 | -0.236%
CCC1Nc2ncnc(N3CCN(c4ccccc4)CC3)c2N(Cc2ccc(C)cc2)C1=O.O=C(O)C(F)(F)F (stereo not shown) | -4.6%
O=C(CCS(=O)(=O)c1ccc(Cl)cc1)Nc1nc(-c2cccnc2)cs1 | 19.5%
CCN(CC)Cc1cc(NC2=NS(=O)(=O)c3ccccc32)ccc1OC(=O)c1ccccc1.Cl | -48.5%
CC(C)N1CC2=C(OC(N)=C(C#N)C2c2cccnc2)/C(=C/c2cccnc2)C1 (stereo not shown) | -23.6%
Cc1ccc(S(=O)(=O)N2CCN(CC(=O)NC3CCCc4ccccc43)CC2)c(C)c1 (stereo not shown) | -19.7%
CCN(CC)C(=O)Cn1cc(/C=C(\C#N)C(=O)NC2CC2)c2ccccc21 | 5.57%
Cc1noc(C)c1C(=O)OCC(=O)NC(c1ccccc1)c1ccccc1 | 1.47%
CCN1C(=S)N[C@@H](CCc2ccccc2)C(C(=O)OC)=C1C | -8.11%
COc1ccc(/C=C/C=C2\N=C(SC)SC2=O)cc1 | 8.3%
COCCCNC(=O)CN(C1CCCCC1)S(=O)(=O)c1ccc(C)cc1 | -0.742%
N#CC1=C(N)N(c2ccccc2)C(c2ccccc2)C1(C#N)C#N (stereo not shown) | 0.751%

SMILES | hERG current change (%, negative = inhibition) at 10uM
CCn1c(SCC(=O)NC(C)(C)C)nnc1-c1ccncc1 | 16.6%
CC(=O)c1cccc(CN(C)CC2CCCN(CCc3ccccc3C)C2)c1 (stereo not shown) | -28.8%
COc1ccc(/C=N/NC(=O)c2[nH]c3ccc(Cl)cc3c2-c2ccccc2)c(C(=O)O)c1OC | 5.67%
O=C1c2ccccc2-c2nnc(-c3ccccc3)cc21 | 10.6%
Cc1ccc(S(=O)(=O)n2ccnc2)cc1C | 6.47%
S=C(NCCN1CCOCC1)N/N=C/c1c2ccccc2cc2ccccc12 | -1.34%
CC1(C)CC(=O)C(C=NCCO)=C(O)C1 | 18.7%
CSc1ccccc1OCc1cc(C(=O)N(C)C(C)c2ccccn2)no1 (stereo not shown) | -10.6%
CS(=O)(=O)c1cccc(C(=O)Nc2cccc(-c3nc4ccccc4[nH]3)c2)c1 | -56.7%
Cc1nn(-c2ccccc2)c(C)c1/C=C/C(=O)OCC(=O)Nc1ccc(S(N)(=O)=O)cc1 | 13.1%
COc1cc2c(cc1OC)C(c1cc(Br)ccc1F)N(C(=O)CCl)CC2 (stereo not shown) | -28.6%
C=CCn1c(SCC(=O)NCCCC)nc2scc(-c3ccco3)c2c1=O | -16.7%
O=C(c1ccc(F)cc1)N1CCOC(c2nc(-c3ccc(F)cc3)no2)C1 (stereo not shown) | -40%
COc1ccc(N2CC(C(=O)Nc3nnc(SCC(=O)NCc4ccco4)s3)CC2=O)cc1 (stereo not shown) | 19.4%
CC(=O)Nc1c2c(nn1-c1cccc(C)c1)CSC2 | 10.9%
C=CCc1cccc(/C=N/NC(=O)CNc2ccccc2OC)c1O | 12.1%
Cc1ccc(OCCSc2ncnc3sc(C)c(C)c23)cc1C | 3.4%
COc1ccc(C(=O)Nn2cnc3ccccc3c2=O)cc1[N+](=O)[O-] | -4.64%
O=C(COc1nc2ccccc2nc1N1CCOCC1)Nc1cccc(S(=O)(=O)N2CCCCC2)c1 | -3.3%
COc1ccc(-n2c(/C=C3\C(=O)N(C)c4ccccc43)nc3ccccc3c2=O)cc1 | 13.6%
CC(=O)Nc1ccc(Oc2nc(-c3cccnc3)nc3sc4c(c23)CCCC4)cc1 | 5.5%
N#C/C(=C\c1c(N2CCN(c3ccccc3)CC2)nc2ccccn2c1=O)S(=O)(=O)c1ccccc1 | 2.28%

SMILES | hERG current change (%, negative = inhibition) at 10uM
CCc1ccc(OCC(=O)NCCc2ccc3c(c2)OCCO3)cc1 | -28%
CC(=O)c1ccc(N(CC(=O)NC2CCCCC2)C(=O)CNC(=O)c2ccco2)cc1 | -7.74%
O=C(COc1ccccc1[N+](=O)[O-])N(Cc1ccccc1)c1ccccn1 | -15%
O=C(N/N=C1/CC2C=CCC12)c1ccco1 (stereo not shown) | -7.26%
CCCCN(Cc1cc2cc(OC)ccc2[nH]c1=O)C(=O)c1ccccn1 | -25.2%
O=C(CN(c1ccc(F)cc1)S(=O)(=O)c1ccccc1)NCCSC1CCCCC1 | -9.29%
COc1cc(OC)cc(C(=O)Nc2ccccc2-c2nnn(CC(=O)Nc3cc(C)on3)n2)c1 | 2.46%
O=C(CNS(=O)(=O)c1ccccc1)Nc1ccc(C(F)(F)F)cc1 | 9.32%
COc1cc(CC(=O)OCn2nnc3ccccc3c2=O)cc(OC)c1OC | 18.1%
COCCN1CCN(C(=O)C2CCC(=O)N(Cc3cccc(C(F)(F)F)c3)C2)CC1 (stereo not shown) | 2.95%
COc1ccc(Cl)cc1/C=C1/C(=O)ON=C1C | 14.4%
COc1ccc(CNC(=O)c2csc(Cc3ccc(OC)cc3)n2)cc1 | -13%
COc1ccc(N(C)S(=O)(=O)c2cccc(C(=O)NC3CCC(C)CC3)c2)cc1 (stereo not shown) | -14.2%
Cc1cc(=O)oc2cc(NC(=O)C(CCCN=C(N)N)NC(=O)OCc3ccccc3)ccc12 (stereo not shown) | 18.1%
CN(CC(=O)Nc1ccc(F)cc1)C(=O)COC(=O)/C=C/c1ccccc1[N+](=O)[O-] | -46%
COc1cccc(N(CC(=O)NC2CC3CCC2C3)S(=O)(=O)c2ccccc2)c1 (stereo not shown) | -23.2%
O=C(Cc1cccs1)N(c1ccc(Br)cc1)C1C=CS(=O)(=O)C1 (stereo not shown) | 0.356%
C=CCn1cc(/C=C2\SC(N3CCOCC3)=NC2=O)c2ccccc21 | -5.35%
COc1ccc(C)cc1NC(=O)c1cc2ccccc2cc1OCC(=O)NCc1ccco1 | 0.0844%
COC(=O)c1oc2ccc(Br)cc2c1NC(=O)CCN1CCOCC1 | -17.7%
Cc1nc(CS(=O)(=O)c2ccccc2)cc(Sc2ccc(Cl)cc2Cl)n1 | -10.1%
Cc1cc(/C=N/NC(=O)c2cccs2)c(C)n1-c1cnccn1 | 6.47%

SMILES | hERG current change (%, negative = inhibition) at 10uM
COCCCN1CC(=O)N2C(c3cccc(OC)c3OC)c3[nH]c4ccccc4c3C[C@H]2C1=O (stereo partly shown) | -25.7%
COc1ccc([N+](=O)[O-])cc1N(CC(=O)N1CCN(Cc2ccccc2)CC1)S(C)(=O)=O | 5.94%
CCOC(=O)N1CCC(N(CCCOC)C(=O)Nc2cccc(OC)c2)CC1 | 0.292%
CCc1ccc(C(=O)O)cc1 | 14.8%
Cc1cc(Cl)ccc1-n1c(-c2cccnc2)n[nH]c1=S | 14.8%
Cc1ccc(NC(=O)COc2ccc(/C(N)=N/O)cc2)cc1C | -14.1%
CS(=O)(=O)N(CC(=O)Nc1cccc(Cl)c1)c1ccccc1Cl | -12.3%
O=C(NCCCN1CCCCCC1)c1ccc2c(c1)NC(=O)C(N1CCOCC1)S2 (stereo not shown) | 6.27%
COc1cccc(CC(=O)Nc2cccc3ccccc23)c1 | -39.5%
CCCCCSc1nc2c(c(=O)[nH]c(=O)n2C)n1C(C)C | 2.38%
CCNc1ccc(C(=O)NN=C2CCCC2)cc1[N+](=O)[O-] | -37.9%
CN=c1scc(-c2cccs2)n1/N=C/c1ccccc1O | 11.1%
COc1ccc(OCc2cc(C(=O)N(C)Cc3nccn3C)no2)c2ccccc12 | -23.4%
O=C(Cc1cccc(C(F)(F)F)c1)Nc1cccc(S(=O)(=O)N2CCCC2)c1 | 22.7%
NC(=O)C1(N2CCCCC2)CCN(Cc2nc(-c3cccs3)no2)CC1 | 4.28%
Cc1ccc(-n2c(=S)sc3c(=O)n(-c4ccc(F)cc4)c(SCC(=O)O)nc32)cc1C | 18.6%
Cc1ccc(/C=N/n2c(C)nc3ccccc3c2=O)s1 | -3.52%
O=C(c1n[nH]c(=O)c2ccccc12)N1CCN(C2c3ccccc3-c3ccccc32)CC1 | -2.33%
CCN(CC)CCCn1c2c(c(SCC(=O)Nc3nc(C)cs3)nc1=O)CCC2 | -42.6%
